Hit rate of the full screen: of about 50,000 compounds, about 800 (1.6%) showed an effect of 50% or more. The list shows a part of the results.
target: Bcl-2-like protein 10 (Homo sapiens) (UniProt Q9HD36); assay: Phenotype converters, Bcl-B/TR3 peptide binding displacement, primary biochemical FP (AID 1240); details: GST-Bcl-B / FITC-TR3 peptide fluorescence polarization; stronger effect = higher value; compound at 3.75 mg/L;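 note: 0% = Bcl-B with tracer peptide and DMSO and 100% = tracer peptide lacking Bcl-B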
Chain of UniProt Q9HD36 (Q9HD36 whole entry, looked up): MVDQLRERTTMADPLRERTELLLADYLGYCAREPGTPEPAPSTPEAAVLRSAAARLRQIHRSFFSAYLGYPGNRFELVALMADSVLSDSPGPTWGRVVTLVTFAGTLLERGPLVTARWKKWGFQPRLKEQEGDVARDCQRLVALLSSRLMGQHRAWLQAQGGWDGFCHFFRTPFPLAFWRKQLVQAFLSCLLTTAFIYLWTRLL

How did the displacement turn out when `Cc1ccc(C(=O)Sc2nc(-c3ccccc3)[nH]c2S(=O)(=O)c2ccc(C)cc2)cc1` was run?
The displacement was 6.5%.

With `CCN(CC)C(=O)CN(c1ccc(Oc2ccccc2)cc1)S(C)(=O)=O` as the compound, how does the displacement read?
The displacement was 2.2%.

Which displacement does the source give for `CSc1nc(C)c(C(=O)Nc2ccccc2)c(C)c1C#N` here?
Its displacement is -8.9%.

For `CCC(=O)Nc1ccc(NC(=O)/C=C/c2ccco2)cc1`, which displacement is on record?
The displacement was 4.4%.

How did the displacement turn out when `CCCc1c(O)nc(SCC(=O)O)[nH]c1=O` was run?
The displacement was 0.2%.

`CC1=CC(C)(C)N(C(=O)c2ccccc2)c2ccccc21` was tested. Which displacement did it give?
Its displacement is -27.4%.

How did the displacement turn out when `Cc1cc([N+](=O)[O-])ccc1-c1ccc(C(=O)Nc2ccc(I)cc2Cl)o1` was run?
Its displacement is 11.2%.

Which displacement does the source give for `COc1ccc(N(CC(=O)Nc2ccc(I)cc2)S(=O)(=O)c2ccc(C)cc2)c(OC)c1` here?
The displacement was 11.3%.

With `Clc1cccc(CN2CCN(Cc3ccncc3)CC2)c1` as the compound, how does the displacement read?
The displacement was -20.6%.

For `O=C(NCCCO)/C(=C/c1ccc2c(c1)OCO2)NC(=O)c1ccc(Br)o1`, which displacement is on record?
The displacement was 2.1%.

Which displacement does the source give for `Cc1cc(C)c(OCC(=O)Nc2cccc([N+](=O)[O-])c2)c(C)c1` here?
The displacement was 11.6%.

Which displacement does the source give for `CCOC(=O)CNC(=O)c1ccc(C#Cc2ccccc2)cc1` here?
Its displacement is 2.2%.

Which displacement does the source give for `COc1ccc(/C=C/C(=O)O)cc1S(=O)(=O)NCCCO` here?
The displacement was 11.4%.

`CCOC(=O)c1c(NC(=O)CCN2CCN(C)CC2)sc2c1CCCC2` was tested. Which displacement did it give?
The displacement was -4.7%.

Which displacement does the source give for `COC(=O)C1=C(C)NC2=C(C(=O)CC(c3ccc(OC)cc3)C2)C1c1cc(OC)ccc1OC` (centres undefined) here?
Its displacement is 0.1%.

With `O=C(c1ccc([N+](=O)[O-])cc1Cl)N1CCN(c2ccccn2)CC1` as the compound, how does the displacement read?
Its displacement is -6%.

How did the displacement turn out when `COc1ccccc1N1C(=O)CC(Nc2ccc(N3CCOCC3)cc2)C1=O` (centres undefined) was run?
The displacement was -13%.

For `CC(=O)Nc1ccc(C(=O)CSc2n[nH]c(-c3ccccc3)n2)cc1`, which displacement is on record?
Its displacement is 9.9%.

With `Cc1ccc(/C=C2\SC(=S)N(CCC(=O)Nc3ccc(S(=O)(=O)Nc4nccs4)cc3)C2=O)cc1` as the compound, how does the displacement read?
Its displacement is -3.5%.

For `Cc1c(NC(=S)NCc2ccccc2)c(=O)n(-c2ccccc2)n1C`, which displacement is on record?
The displacement was 0.5%.

How did the displacement turn out when `O=C(NC1CCN(Cc2ccccc2)CC1)c1ccc(F)cc1` was run?
Its displacement is 2.6%.

With `CCCOc1cccc(C(=O)Nc2ccc(NC(=O)CC)cc2)c1` as the compound, how does the displacement read?
The displacement was 6.4%.

How did the displacement turn out when `O=C(/C=C/c1cn(-c2ccccc2)nc1-c1ccccc1)c1cccs1` was run?
Its displacement is 12.3%.

How did the displacement turn out when `O=[N+]([O-])c1ccc(Cl)c(/C=N/NS(=O)(=O)c2ccccc2)c1` was run?
The displacement was 3.9%.

Which displacement does the source give for `CCOC(=O)C1=C(C)N(c2ccccc2)C(=O)/C1=C\c1cccc([N+](=O)[O-])c1` here?
Its displacement is 12.8%.

With `Cc1ccc(-n2nnnc2C(=N)c2nnnn2-c2ccc(C)cc2)cc1` as the compound, how does the displacement read?
Its displacement is 6.1%.

For `O=C(CC1SC(=O)NC1=O)Nc1ccccc1` (centres undefined), which displacement is on record?
Its displacement is 7%.

With `O=C(Oc1ccc(I)cc1)c1cccs1` as the compound, how does the displacement read?
Its displacement is -7.4%.

For `Clc1ccc(/C=N/n2cnnc2)cc1`, which displacement is on record?
Its displacement is 7.9%.

For `CCOP(=O)(OCC)C(Nc1ccccc1)c1cc(Cl)cc(Cl)c1OC` (centres undefined), which displacement is on record?
The displacement was -14.6%.

For `CC(=O)Nc1ccc2c(c1)C1C=CCC1C(c1ccccc1[N+](=O)[O-])N2` (centres undefined), which displacement is on record?
The displacement was 8.7%.

How did the displacement turn out when `O=C(NC(=S)Nc1ccc2oc(-c3ccccc3Br)nc2c1)c1ccco1` was run?
The displacement was 38.7%.

For `O=C(O)c1cc2nc3c(c(C(F)(F)F)n2n1)CCc1ccccc1-3`, which displacement is on record?
Its displacement is 19.4%.

Which displacement does the source give for `CC1=C(C)C(C)=C(C#N)C(=C(C#N)C#N)N1` here?
The displacement was 4.4%.

With `CCc1cccc(C)c1NC(=O)c1ccc(Br)o1` as the compound, how does the displacement read?
The displacement was 6.8%.

`C/C(=N\N1CCN(c2ccccc2)CC1)c1ccc(F)cc1` was tested. Which displacement did it give?
Its displacement is -8.7%.

For `COc1cccc(/C=C/C(=O)c2cccc([N+](=O)[O-])c2)c1OC`, which displacement is on record?
Its displacement is -2.6%.

With `CCC1(C)Cc2c(sc3nc(SCc4ccccc4)[nH]c(=O)c23)CO1` (centres undefined) as the compound, how does the displacement read?
Its displacement is -2.7%.

`O=c1c(/C=C(\O)c2ccc([N+](=O)[O-])cc2)nc2ccccc2n1-c1ccccc1` was tested. Which displacement did it give?
The displacement was 20.1%.

With `CCOC(=O)c1sc(N=NC2=C(O)CCCC2=O)c(C(=O)OCC)c1C` as the compound, how does the displacement read?
Its displacement is 27.7%.

Which displacement does the source give for `CCc1ccc(NC(=O)C2CC2c2ccccc2)cc1` (centres undefined) here?
The displacement was 13.6%.

`S=C(NCC1CCCO1)Nc1ccc(Cl)cc1Cl` (centres undefined) was tested. Which displacement did it give?
The displacement was 0.9%.

With `CCOC(=O)C1=C(O)/C(=C\c2ccccc2)SC1=Nc1cccc(Cl)c1` as the compound, how does the displacement read?
The displacement was -9.4%.

For `COc1ccccc1NS(=O)(=O)c1cc(N2C(=O)C3C4C=C(C)C(C4)C3C2=O)ccc1Cl` (centres undefined), which displacement is on record?
The displacement was -28.4%.

How did the displacement turn out when `N#C/C(=C/c1c[nH]c2ccccc12)C(=O)Nc1cccc(Br)c1` was run?
The displacement was 90.7%.

How did the displacement turn out when `NC(=O)c1cc(NC(=O)COc2ccc(F)cc2)cc(C(N)=O)c1` was run?
Its displacement is 7%.

Which displacement does the source give for `CC(C)(C)c1cc(C(=S)N2CCOCC2)cc(C(C)(C)C)c1O` here?
The displacement was -12.7%.

How did the displacement turn out when `Cc1ccc(-c2cc(-c3ccc(C)cc3O)[nH]n2)cc1` was run?
Its displacement is 0.3%.

With `O=C(CSc1nc2ccccc2n1Cc1ccccc1)N/N=C/c1ccc([N+](=O)[O-])cc1` as the compound, how does the displacement read?
Its displacement is -9.9%.

How did the displacement turn out when `O=S(=O)(Nc1cccc(C(F)(F)F)c1)c1cccs1` was run?
The displacement was 2.8%.

How did the displacement turn out when `CCOC(=O)c1c(NC(=O)c2ccc(OC)c(OC)c2)sc(C(=O)N2CCCCC2)c1C` was run?
The displacement was -1.2%.

`O=C(CSCc1ccccc1)Nc1ccccc1Cl` was tested. Which displacement did it give?
The displacement was 11.1%.

With `COc1ccc(/C=C/C(=O)Nc2c(F)c(F)c(F)c(F)c2F)cc1` as the compound, how does the displacement read?
The displacement was 10.9%.

Which displacement does the source give for `O=C(CSc1nnc(-c2cccnc2)o1)c1ccc(Br)cc1` here?
Its displacement is 8%.
